The campaign covered roughly 43,000 compounds. About 200 (0.47%) were called active. About 12% were inconclusive and are not listed. The call rests on the fitted dose curve; in most records, active means well fitted cell-killing curve with a large enough effect; inconclusive means small, poorly fitted or top-dose-only effect, or effect the other way; inactive means flat fitted curve, though single readings scatter. The list shows a part of the results.
On the % scale 0 is the no-effect control and ±100 the full control effect.

This experiment can be described thus: Cell viability qHTS assay in S16 Pmp22-F2sN cells. Further: nearly all actives have a fitted effect of over 65% in size. The note with it: S16 Pmp22-F2sN Schwann cells (luciferase reporters placed in the Pmp22 gene) viability, CellTiter-Glo, 24 h; series mostly up to 57.5 µM; activity change, negative = cytotoxicity: at the top concentration. The method, boiled down:
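Seed 500-1,000 S16 Pmp22-F2sN cells per well in phenol-red-free DMEM with 10% heat-inactivated FBS; pin-add 23 nL compound; incubate 24 h at 37C; add CellTiter-Glo, wait 15 min protected from light; read luminescence.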
Regarding `CCC(C)NC(=O)Cn1c(=O)n(-c2ccc(C)c(C)c2)c(=O)c2c(C)c(C(=O)N(CC)CC)sc21` (configuration not stated), the “activity change, negative = cytotoxicity” value is inactive: 8.26%. With `CCCCSCCCNC(=O)c1c[nH]c2ccc(S(=O)(=O)Nc3cccc(OC)c3)cc2c1=O` the figure was inactive: -6.98%; with `Cc1cc2nc(N(Cc3cccnc3)C(=O)c3ccc(Cl)s3)sc2cc1C`, inactive: 4.24%.

For `Cc1ccc(S(=O)(=O)NCC(c2ccc(N(C)C)cc2)N2CCc3ccccc32)cc1` (configuration not stated), the “activity change, negative = cytotoxicity” value was inactive: 8.2%.

For `Cc1ccc(NC(=O)Cn2cc(C(=O)c3ccco3)c3ccccc32)cc1`, the “activity change, negative = cytotoxicity” value was inactive: 4.14%. On to `CCOc1ccc(-c2cccc(NS(=O)(=O)c3ccccc3C(F)(F)F)c2)nn1`, for which the “activity change, negative = cytotoxicity” value is inactive: 3.66%. Turning to `O=S(=O)(c1ccc2nc(Nc3cccc(F)c3)ccc2c1)N1CCCC1`, the “activity change, negative = cytotoxicity” value is inactive: 12.1%.

As for `CCOc1ccccc1C1C(C(=O)Nc2ccccc2)=C(C)Nc2c(C(=O)Nc3ccc(F)cc3)cnn21` (configuration not stated), the “activity change, negative = cytotoxicity” value is inactive: -19.6%.

As for `CCn1cc(C(=O)N2CCN(c3ccc(OC)cc3)CC2)c2cc(OC)c(OC)cc2c1=O`, the “activity change, negative = cytotoxicity” value is inactive: 13.3%.

For `CCn1c(C(=O)N2CCCC(C(=O)N3CCN(c4ccccc4)CC3)C2)cc2sccc21` (configuration not stated), the “activity change, negative = cytotoxicity” value was inactive: -2.6%.

Regarding `CCc1ccc(NC(=O)N2CCC(N3CCN(Cc4ccc(C)cc4)C(=O)C3=O)CC2)cc1`, the “activity change, negative = cytotoxicity” value was inactive: -12.5%. The same measure for `Cc1cccc(N2CCN(c3ccc(NC(=O)c4ccccc4)cc3C(=O)O)CC2C)c1` (configuration not stated): inactive: 1.83%. The same measure for `COc1ccc(-c2noc(CSc3nc(N)cc(=O)[nH]3)n2)cc1`: inactive: -22.4%. The same measure for `Cc1cc2[nH]c(=O)c(=O)[nH]c2cc1S(=O)(=O)Nc1ccc(OC(F)(F)F)cc1`: inactive: 6.97%; for `COc1cccc(CNC(=O)C(Cc2ccccc2)NS(=O)(=O)c2ccc3c(c2)oc(=O)n3C)c1` (configuration not stated): inactive: -6.04%; for `Cc1cccc(OC(=O)c2cc(-c3ccc4c(c3)OCCO4)on2)c1C`: inactive: 2.57%. `Cc1cc(Nc2cccc(Cl)c2)nc2ccc(NC(=O)c3cccc(N(C)C)c3)cc12`: the “activity change, negative = cytotoxicity” value is inactive: -17.1%. The same measure for `CCCS(=O)(=O)N1CCC(N2CCN(Cc3ccc(F)cc3)C(=O)C2=O)CC1`: inactive: 17.2%.

In the case of `COc1ccc(-c2noc(-c3nnn(-c4ccc(C(C)C)cc4)c3C)n2)cc1OC`, the “activity change, negative = cytotoxicity” value is inactive: 8.23%.

Turning to `O=C(Nc1ccccc1)c1ccc2c(O)c(S(=O)(=O)c3ccc(Cl)cc3)c(=O)[nH]c2c1`, the “activity change, negative = cytotoxicity” value was inactive: 4.68%. With `CCOC(=O)c1ccc(NC(=O)CN2Cc3ccccc3C2=O)cc1` the figure was inactive: 1.25%. Turning to `Cc1ncc(CO)c2c1Oc1nc(-c3ccc(F)cc3)nc(SCc3ccc(F)cc3Cl)c1C2`, the “activity change, negative = cytotoxicity” value is inactive: 7.83%. In the case of `O=C(NCc1ccc(F)cc1)c1ccc2c(c1)nc1n2CCCCC1`, the “activity change, negative = cytotoxicity” value is inactive: 7.2%. With `CSc1ncc(Cl)c(C(=O)Nc2c(C(=O)c3ccc(C)c(F)c3)oc3ccccc23)n1` the figure was inactive: 9.73%; with `COc1cccc(NC(=O)CCc2nc(-c3cccs3)no2)c1`, inactive: -2.73%. The same measure for `CCOC(=O)CCc1c(C)nc2c(c(C)nn2-c2ccc(C)cc2)c1C`: inactive: 0.144%; for `O=C(Cn1nc(-c2ccc(Cl)cc2)ccc1=O)NCCc1ccccc1`: inactive: 1.36%. With `O=C(C1CCC1)N1CCc2cc(S(=O)(=O)NCCc3ccccc3)ccc21` the figure was inactive: 6.4%. `Cc1ccc(Cl)cc1N(C)C(=O)C1CCCN(c2ncnc3onc(-c4ccc(F)cc4)c23)C1` (configuration not stated): the “activity change, negative = cytotoxicity” value is inactive: -11.8%. The same measure for `Cc1ccc(Cn2c(CCNC(=O)C(C)C)nc3ccccc32)cc1`: inactive: -2.99%. With `COc1ccc(CNC(=O)CCNS(=O)(=O)c2ccc3c(c2)CCCC(=O)N3)cc1` the figure was inactive: -0.272%; with `COc1ccc(-c2nc(SCC(=O)NCc3ccccc3Cl)n[nH]2)cc1`, inactive: -14.9%. With `Cc1cccc(CN2CCC(CNc3ncnc4onc(-c5ccc(Cl)cc5)c34)CC2)c1` the figure was inactive: -18.3%. On to `Cc1ccc(CNC(=O)CN2C(=O)CC(c3ccc(C)c(C)c3)=Nc3ccccc32)cc1`, for which the “activity change, negative = cytotoxicity” value is inactive: -0.411%. With `COc1ccc(-c2nc(S(=O)(=O)c3ccc(C)cc3)c(N3CCCCC3)o2)cc1` the figure was inactive: -2.33%. With `O=C(NCc1cccc(Cl)c1)NCc1noc2ccccc12` the figure was inactive: -1.23%. `CCCCN(CC)C(=O)CCCn1c(=O)c2cccn2c2ccccc21`: the “activity change, negative = cytotoxicity” value was inactive: -6.41%. The same measure for `COc1cccc(N2CCN(c3ncnc4c3c(-c3ccccc3)cn4-c3ccc(F)cc3)CC2)c1`: inactive: 3.05%; for `COc1ccc(NC(=O)C2CCCN(S(=O)(=O)c3cccc4nonc34)C2)cc1Cl` (configuration not stated): inactive: -4%; for `Clc1cccc(-n2cc(-c3ccccc3)c3c(NC4CCCC4)ncnc32)c1`: inactive: -1.35%. With `COc1ccccc1NC(=O)CSc1nc2c(oc3ccccc32)c(=O)n1Cc1ccco1` the figure was inactive: -10.1%; with `Cc1ccc(-c2nnc3c4ccccc4c(C)nn23)cc1NC(=O)c1cccc(Br)c1`, inactive: -14.4%; with `CCN1CCN(c2ncnc3c2cnn3-c2cc(Cl)ccc2C)CC1`, inactive: 19%. The same measure for `CCOC(=O)c1c(S(=O)(=O)NCC(=O)N(C)Cc2ccccc2)c(C)n(C)c1C`: inactive: 2.04%; for `COc1ccccc1N1CCN(c2ncnc3c2c(-c2ccccc2)cn3-c2cccc(C)c2)CC1`: inactive: 16.5%; for `CC1CCN(S(=O)(=O)c2csc(C(N)=O)c2)CC1`: inactive: 14.8%. For the compound `CCOC(=O)c1cnc(N2CCN(c3ccc(OC)cc3)CC2)c2ccccc12`, the “activity change, negative = cytotoxicity” value is inactive: 18.1%. The same measure for `CC(=O)Nc1nonc1-c1nnc(SCC(=O)Nc2ccc(C)c(Cl)c2)n1C`: inactive: 3.1%; for `CCOc1ccc2c(c1)c(=O)c(S(=O)(=O)c1ccc(C)cc1)cn2Cc1ccccc1Cl`: inactive: -14%; for `CCCOc1ccc(C2c3c(oc4ccc(F)cc4c3=O)C(=O)N2CCc2ccc(OC)cc2)cc1` (configuration not stated): inactive: 4.93%. The same measure for `O=C(CSc1oc(-c2ccc(F)cc2)nc1S(=O)(=O)c1ccc(Br)cc1)NC1CCCCC1`: inactive: 2.8%. The same measure for `CCC(=O)Nc1cccc(-c2nc3cc(C)ccc3o2)c1`: inactive: 17.2%; for `CC(=O)c1ccc(N2CCN(c3ccc4cc(S(=O)(=O)N5CCC(C)CC5)ccc4n3)CC2)cc1`: inactive: 16.3%; for `Cc1cccc(NC(=O)/C(C#N)=C/c2ccc(C)o2)c1`: inactive: -18.7%.

In the case of `Cc1ccc(S(=O)(=O)c2cn(CC(=O)Nc3ccc(Cl)cc3)c3ccc(F)cc3c2=O)cc1C`, the “activity change, negative = cytotoxicity” value was inactive: -8.98%. With `COc1cc(C2CC(=O)Nc3c2c(=O)n(C)c2ncnn32)cc(OC)c1OC` (configuration not stated) the figure was inactive: -4.24%. With `CCOC(=O)c1c(NC(=O)c2cc(CC)on2)sc(C(C)=O)c1C`, the “activity change, negative = cytotoxicity” value is inactive: -2.33%.

Take `O=C(CN1c2ccccc2S(=O)(=O)c2ccccc21)Nc1cccc(C(F)(F)F)c1`: the “activity change, negative = cytotoxicity” value is inactive: -3.31%.

Regarding `Cc1cccc(Cn2c(Cc3ccccc3)nc3ccccc32)c1`, the “activity change, negative = cytotoxicity” value is inactive: 13.3%. The same measure for `O=C(NCc1ccc(F)cc1)c1ccc2oc(=O)n(Cc3ccccc3)c2c1`: inactive: 0.783%; for `COc1ccccc1NC(=O)C(=O)NCC(c1cccnc1)N1CCc2ccccc2C1` (configuration not stated): inactive: -9.55%. The same measure for `CCc1ccc(NC(=O)Cn2c(=O)c3cc(Cl)ccc3n3nncc23)cc1`: inactive: 14%; for `CCOc1ccc(-c2cc(C(=O)NCCc3ccc(OC)c(OC)c3)[nH]n2)cc1`: inactive: 4.61%; for `CN1CC(=O)N(CC(=O)Nc2ccc(OC(F)(F)F)cc2)c2ccccc2C1=O`: inactive: 5.35%. The same measure for `O=c1c2oc3ccccc3c2n(Cc2cccc(F)c2)c(=O)n1Cc1ccc2c(c1)OCO2`: inactive: -3.44%; for `Cc1ccccc1CNC(=O)C(=O)NCC(c1cccs1)S(=O)(=O)c1cccs1` (configuration not stated): inactive: 5.49%. As for `COC(=O)c1cccc(CN2C(=O)SC(Nc3ccc(C)cc3)C2=O)c1` (configuration not stated), the “activity change, negative = cytotoxicity” value was inactive: -1.4%.

Consider `C=Cc1ccc(Cn2c(SCC(=O)N3CCN(c4ccc(F)cc4)CC3)nc3ccccc32)cc1`, for which the “activity change, negative = cytotoxicity” value was inactive: 2.09%. Turning to `CC(=O)Nc1nonc1-c1nnc(SCc2ccccc2)n1C`, the “activity change, negative = cytotoxicity” value was inactive: 3.85%.

As for `COc1ccc(-n2nc(C(=O)Nc3cc(C)ccn3)c3c4ccccc4n(C)c3c2=O)cc1Cl`, the “activity change, negative = cytotoxicity” value is inactive: -7.13%.

With `COc1ccc(CNC(=O)c2cnc3ccc(C)cn3c2=O)cc1`, the “activity change, negative = cytotoxicity” value is inactive: 6.77%. The same measure for `Cc1ccccc1NC(=O)c1ccc(N(Cc2ccccc2)S(C)(=O)=O)cc1`: inactive: -12.3%; for `CCc1nn(CC(=O)NC(C)CC)c(=O)c2cc3occc3n12` (configuration not stated): inactive: -1.33%. Regarding `CC(C)(C)OC(=O)N1CCC(c2c(C(=O)Nc3ccc4c(c3)OCO4)cnn2-c2ccccc2)CC1`, the “activity change, negative = cytotoxicity” value is inactive: 4.37%. With `O=C(COc1ccccc1)OCc1cc(=O)n2nc(-c3cccs3)sc2n1` the figure was inactive: 0.234%; with `Cc1c(Cl)cccc1NC(=O)c1cc2nc(-c3ccc4c(c3)OCO4)cc(C(F)(F)F)n2n1`, inactive: 2.01%.

`COC(=O)c1ccccc1NC(=O)CCS(=O)(=O)c1nc(-c2ccc3c(c2)OCO3)cc(C(F)(F)F)n1`: the “activity change, negative = cytotoxicity” value was inactive: -6.22%.

`COc1ccccc1CNc1ncnc2c1nnn2C`: the “activity change, negative = cytotoxicity” value is inactive: -1.06%.

`CCOCCCn1c(=N)c(S(=O)(=O)c2ccc(Cl)cc2)cc2c(=O)n3cccc(C)c3nc21`: the “activity change, negative = cytotoxicity” value is inactive: 13.6%. With `COC(=O)c1c(-c2cccs2)csc1NC(=O)c1ccc(C(C)C)cc1` the figure was inactive: -10.5%. As for `O=C(NCc1ccc2c(c1)CCN2C(=O)c1ccncc1)c1ccccc1F`, the “activity change, negative = cytotoxicity” value was inactive: -3.25%. With `COc1ccc(N2CCN(C(=O)CSCc3ccc(C)cc3)CC2)cc1` the figure was inactive: -2.65%; with `CC(=O)c1cccc(NS(=O)(=O)c2cccc(S(=O)(=O)c3ccc(Br)cc3)c2)c1`, inactive: -0.434%. The same measure for `O=c1[nH]c(SCc2c(F)cccc2Cl)nc2c1CCCC2`: inactive: -4.14%.

`Cc1ccc(NC(=O)CCS(=O)(=O)c2ccc3c(c2)oc(=O)n3C)c(Br)c1`: the “activity change, negative = cytotoxicity” value was inactive: -56.2%.

`Cc1ccc2nc(COc3cccc(NC(=O)COc4ccc(F)cc4)c3)cc(=O)n2c1`: the “activity change, negative = cytotoxicity” value was inactive: -3.36%.

Take `COc1ccc(NC(=O)c2cc3c(C)nn(-c4ccccc4)c3s2)c(OC)c1`: the “activity change, negative = cytotoxicity” value was inactive: -4.95%. For `Cc1c(Cl)cccc1Nc1nn2c(=O)c3ccc(C(=O)N(C)Cc4ccccc4)cc3nc2s1`, the “activity change, negative = cytotoxicity” value was inactive: 1.17%. With `CCOc1cc(S(=O)(=O)NCCc2c(C)[nH]c3ccc(C)cc23)ccc1Br`, the “activity change, negative = cytotoxicity” value was inactive: -6.29%.

As for `O=C(Nc1cccc(-c2nc3ccccc3o2)c1)c1cccc2c(Cl)cccc12`, the “activity change, negative = cytotoxicity” value is inactive: 6.16%. With `COCCNC(=O)c1[nH]c2cc(C)ccc2c1Sc1ccc(Cl)cc1` the figure was inactive: -1.64%.

On to `COc1ccc(Cl)cc1NC(=O)CCn1c(=O)oc2ccccc21`, for which the “activity change, negative = cytotoxicity” value is inactive: 9.28%. With `Cc1ccccc1NC(=O)CSc1ccc(-c2cccs2)nn1` the figure was inactive: -21.3%. For the compound `O=c1[nH]c(SCc2ccc([N+](=O)[O-])cc2)nc2c1CCCC2`, the “activity change, negative = cytotoxicity” value was inactive: -0.908%. Consider `O=C(CSc1nccn1Cc1ccccc1)Nc1ccc2c(c1)OCCO2`, for which the “activity change, negative = cytotoxicity” value is inactive: -2.21%. Regarding `Cc1ccc(CNC(=O)Cn2cccc2C(=O)c2ccccc2C)cc1`, the “activity change, negative = cytotoxicity” value was inactive: 11.3%. The same measure for `O=C(CSc1nnc(COc2ccccc2)o1)Nc1cc(C(F)(F)F)ccc1Cl`: inactive: 2.13%.

The record behind these values is PubChem BioAssay AID1508642 (National Center for Advancing Translational Sciences (NCATS), 2021).
